Results as given in PMC9574860, “Chemical Toolkit for PARK7: Potent, Selective, and High-Throughput” (Journal of Medicinal Chemistry, 2022).
Hit rate of the full screen: of about 7,900 compounds, about 400 (5.1%) showed an effect of 50% or more. This is one part of the list.

target: Parkinson's disease protein 7 (PARK7/DJ1) (human, UniProt Q99497); assay: primary screen, percent inhibition; read as competition with a fluorescent probe by fluorescence polarization; higher = more effect of the substance; conditions: 100 µM
Sequence (Q99497 whole entry, looked up, the tested form may be a part): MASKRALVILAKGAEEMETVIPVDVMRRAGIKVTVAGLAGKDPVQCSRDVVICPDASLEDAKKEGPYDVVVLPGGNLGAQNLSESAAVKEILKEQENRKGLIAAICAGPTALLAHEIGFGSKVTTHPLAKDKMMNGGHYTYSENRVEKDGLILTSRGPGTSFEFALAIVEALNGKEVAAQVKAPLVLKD
Summary of the method: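 Covalent fragments at 100 μM final were incubated 2 h with 0.2 μM PARK7, then 20 nM probe JYQ-107 added for a further 2 h. Fluorescence polarization read at 480/520 nm; relative FP loss versus reference controls gave remaining enzyme activity.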

SMILES | Inhibition % [%]
CC1(C)OB(c2cccc3c2CCNC3=O)OC1(C)C | 1.49
Cc1cccc(C=C(C#N)C(=O)NC(C)C)c1 | 7.53
CC(C)(C)C(=O)NCCNc1ccc(Cl)c(C#N)n1 | 4.61
O=C(CCl)NCc1cccc(Oc2ccccc2)c1 | 22.5
CC1(C)OB(c2ccc3c(c2)COCCN3)OC1(C)C | 6.15
C=CC(=O)N1CCCC(n2ccc(C(=O)O)n2)C1 (stereo not drawn) | 7.61
C=CC(=O)N1CCC(c2ccccc2C(=O)O)CC1 | 9.27
CCN(CCC#N)S(=O)(=O)C=Cc1ccc(C)cc1 | 23.8
C=CC(=O)NC1(C(=O)NCc2cccs2)CCCCC1 | 3.88
C=CC(=O)N1CCOC2(CCSC2)C1 (stereo not drawn) | 2.15
C=CC(=O)NC1CCc2cn[nH]c2C1 (stereo not drawn) | 31.9
COc1ccc(F)cc1C(C)NC(=O)c1cccnc1S (stereo not drawn) | 4.7
C=CC(=O)NC(C)c1ccc(C(F)(F)F)nc1Cl (stereo not drawn) | 3.35
C=CC(=O)N1CCSC2CCC21 (stereo not drawn) | 7.7
Cc1cc(-n2c(C)cc(C(=O)CCl)c2C)no1 | 7.75
NS(=O)(=O)c1ccc2c(c1)CCN2C(=O)CCl | 83.1
Cc1nc(C#N)n(CC(=O)C(C)(C)C)c1C | 2.87
O=S(=O)(c1ccc(Cl)cc1Cl)n1cccn1 | 1.46
COC(=O)c1cccnc1C#N | 10.3
O=C(O)c1cc(S(=O)(=O)F)cs1 | 90
N#C[C@@H]1C[C@H]2C[C@@H]1[C@@H]1O[C@H]21 (racemic) | 7.91
Fc1ccccc1OCC1CO1 (stereo not drawn) | 54.7
CN(C(=O)n1ccnc1)C1CCc2ccccc21 (stereo not drawn) | 23.2
C=CC(=O)NC(C)c1cc2cccc(F)c2o1 (stereo not drawn) | 6.94
N#Cc1ncn(CCOc2ccccc2Cl)n1 | 8.15

SMILES | Inhibition % [%]
Cc1cc(C)n(S(=O)(=O)c2ccc3oc(=O)ccc3c2)n1 | 0.108
COc1ccc(NC(=O)CCl)c([N+](=O)[O-])c1 | 10.4
Cc1ccc(CN2CCCN(C(=O)CCl)CC2)cc1.Cl | 13
C=CC(=O)N(C)CC(=O)N[C@H]1CCCOC1 | 7.23
O=c1oc(-c2ccccc2)nn1CN1CCOCC1 | 5.66
C=CC(=O)NCC1CCOc2ccccc21 (stereo not drawn) | 7.27
N#Cc1ncn(CC(=O)NC(c2ccccc2)C2CC2)n1 (stereo not drawn) | 6.98
COc1cc(C=C(C#N)C(N)=O)ccc1OC(C)C | 4.85
COc1cc(C#N)ccc1OCCCl | 2.58
CC1CCN(C(=O)CN2CCSC2=O)c2ccccc21 (stereo not drawn) | 9.18
O=S(=O)(F)c1ccc(C(F)(F)F)nn1 | 8.52
C=CC(=O)N(C)C[C@@H]1C[C@H](F)CN1Cc1nccn1C | -2.15
C=CC(=O)N1CCC[C@@H]2COC[C@@H]21 (racemic) | 0.0503
COCC(C)NS(=O)(=O)C=Cc1ccc(Cl)cc1 (stereo not drawn) | 13.7
C=CC(=O)N1CCN(c2nc(C)cs2)CC1 | 9.68
C=CC(=O)N1CCC(n2ncc(C(=O)O)c2C)CC1 | 7.23
C=CC(=O)N1CCN(CCC#N)CC1 | 5.55
C=CS(=O)(=O)c1nc2ccccc2s1 | 6.17
C=CC(=O)NCCN1CCNC(=O)C1 | 7.56
C=CC(=O)N1CCCc2cc(Cl)ccc21 | 3.06
O=C(O)c1cccc(NS(=O)(=O)C=Cc2ccccc2)c1 | -0.0382
O=c1[nH]c(C(Cl)=Cc2cccnc2)nc2ccccc12 | 34.8
O=C(c1cccs1)N1CCCCC1CCS(=O)(=O)F (stereo not drawn) | 84.1
OC1=NC(=S)N=C(O)C1=Cc1ccco1 | 24.5
Cl.Nc1cccc2cc(S(=O)(=O)F)ccc12 | 65.6

SMILES | Inhibition % [%]
COc1ccc(C(C)(C)C)cc1S(=O)(=O)n1ccnc1 | 9.55
COc1cccc(NC(=O)CCl)c1 | 19.1
CN(C)C=C(C#N)Sc1ccc(F)cc1 | 36.5
COc1ccccc1N1CCN(C2CCOC2=O)CC1 (stereo not drawn) | 9.47
Cl.O=C(O)C1CCN(C(=O)C=Cc2ccc(Cl)cc2)C1 (stereo not drawn) | 15.8
COc1cccc(N2C(=O)CN=C2S)c1 | 1.97
CS(=O)(=O)OC1CCNCC1.Cl | 3.92
Cn1ccc(C(=O)CCl)c1 | 49
C=CC(=O)N1CCN(C(=O)N(C)C)CC1 | -1.57
C=CCCOc1cncc(B2OC(C)(C)C(C)(C)O2)c1 | 4.96
C=CC(=O)N1C2CCC1c1ncccc12 (stereo not drawn) | 9.83
N#Cc1ccccc1OS(=O)(=O)c1ccc(Cl)nc1 | 9.18
Cc1noc(C)c1C=CC(=O)N1CCc2ccccc21 | 11.3
O=C(CCl)NNC(=O)Cc1ccccc1F | 5.05
O=C(c1cccnc1S)N1CCC2OCCCC2C1 (stereo not drawn) | 12.3
CN1CCN(c2ccc(C#N)nc2)Cc2ccccc21 | 6.75
C=CC(=O)Nc1c2c(nn1C(C)C)CCC2 | 5.86
C=CC(=O)N1CCC(N(C)C(=O)N(C)C)C1 (stereo not drawn) | 28.7
C=CCn1c(S)nc2ccsc2c1=O | 13.1
Cc1noc(C)c1Cn1c(-c2ccccc2)noc1=O | 14.3
O=C(Oc1cccc(Cl)c1)N1CCOCC1 | 4.2
CCOc1ccc(NC(=O)CCl)c([N+](=O)[O-])c1 | 14.4
COC(=O)c1cc(B2OC(C)(C)C(C)(C)O2)c(C)cn1 | 4.59
CN1C(=O)SC(CC(=O)O)C1=O (stereo not drawn) | 11.7
C=CC(=O)N1CCOc2ccccc2C1 | 7.25

SMILES | Inhibition % [%]
CC1CN(C)CCN1C(=O)C=Cc1nc2ccccc2o1 (stereo not drawn) | 27.3
N#Cc1ncn(Cc2ccccc2C(F)(F)F)n1 | 0.629
Cc1cc(C)c(C(=O)O)c(S)n1 | 12.8
O=C(CCl)NC1CCS(=O)(=O)C1 (stereo not drawn) | 6.48
C=CC(=O)N1CCc2nc(-c3ccccc3)sc2C1 | 16.7
O=C1OCCC1Sc1nnc2sc3ccccc3n12 (stereo not drawn) | 0.305
CC1(c2ccc(Cl)cc2)NC(=O)N(CCS(=O)(=O)F)C1=O (stereo not drawn) | 31.9
C=CC(=O)N1CCN(C(=O)Cc2cccc(Cl)c2)CC1 | 8.81
O=C1NC(=O)C(CCS(=O)(=O)F)N1 (stereo not drawn) | 97.6
C=CC(=O)NCCc1ccc2c(c1)OCO2 | 6.32
O=C(CCl)N1CCCC1c1ccsc1 (stereo not drawn) | 6.97
N#CC(=Cc1ccco1)C(=O)N1CCc2ccccc21 | -27.4
C=CC(=O)N1CCC(n2c(=O)[nH]c3ccccc32)CC1 | 15.7
CCc1nc(C#N)cc(NCC2CCSCC2)n1 | 3.86
N#Cc1cccc(-n2cccn2)n1 | 16.1
O=C(CCl)Nc1ccc(N2CCCCCC2)cc1 | 99.5
N#CC(=Cc1ccc(C(=O)O)cc1)c1ccccn1 | 8.94
O=C1OCCC1Sc1nnc(-c2ccccc2F)[nH]1 (stereo not drawn) | 9.37
Cl.N#Cc1ncn(CCN)n1 | 7.79
CCc1nc(C#N)cc(NC2CSC2)n1 | -3.02
COCCn1c(S)nc2ncccc2c1=O | 6.27
CC(Cl)c1nc2scc(-c3ccco3)c2c(=O)[nH]1 (stereo not drawn) | 3.05
CS(=O)(=O)CCN(C#N)c1ccccc1 | 5.26
CC1(C)OB(c2ccnn2C2CCC2)OC1(C)C | 23.7
N#CC(=Cc1cc2cc(F)ccc2o1)C(=O)O | -2.97

SMILES | Inhibition % [%]
Cc1ccc(S(=O)(=O)n2ccnc2)cc1 | 11.3
NC(=O)C1CCN(C(=O)C=Cc2cccnc2)CC1 | 6.12
Clc1cccc(C2CO2)c1 (stereo not drawn) | 14.4
Cc1ccc(NC2C=CS(=O)(=O)C2)cc1 (stereo not drawn) | 12.7
C=CC(=O)N1CC2(CCC2)C1c1ccncc1 (stereo not drawn) | 7.42
O=C(CCl)Nc1nc(-c2cccs2)cs1 | 11.6
C=CC(=O)N1CCCC(c2ccc(F)c(F)c2)C1 (stereo not drawn) | 9.29
Cc1cc(C)nc(S(=O)(=O)F)n1 | 55.9
COc1ccc(C2CC(C)N(C3CCOC3=O)C2)cc1 (stereo not drawn) | 13.6
Cc1cccc(C(=O)NNC(=O)CCl)c1 | 1.98
C=CC(=O)N1CCCc2ccccc21 | 9.75
C=CC(=O)NCc1ccc(C)s1 | 1.04
C=CC(=O)NC1CCN(c2ccn(C)n2)C1 (stereo not drawn) | 13.8
C=CC(=O)N1CCN(C2CCN(Cc3ccccc3)C2)CC1 (stereo not drawn) | 15.2
CC1(C)OB(c2ccc(N)cc2)OC1(C)C | 5.89
CN(C)Cc1ccc(B2OC(C)(C)C(C)(C)O2)s1 | 5.59
N#Cc1ccc(OC(F)F)cn1 | 10.9
C=CC(=O)N1CCC(c2nc3ccccc3s2)CC1 | 8.38
CCN1C(=O)SC(CC(=O)O)C1=O (stereo not drawn) | 3.41
C=CC(=O)N1CCOCC1c1cccc(F)c1 (stereo not drawn) | 2.96
N#Cc1cnc(S)nc1O | 6.34
C=CC(=O)NCCc1nc2ccc(F)cc2n1C | 3.72
CC(C)C(NC(=O)CCl)c1ccc2c(c1)OCCO2 (stereo not drawn) | 5.63
